According to PMC6670151, “Modified substrate specificity of a methyltransferase domain by protein insertion into an adenylation domain of the bassianolide synthetase” (Journal of Biological Engineering, 2019):

Molecular target: T1, aMTBSLS (Beauveria bassiana, UniProt D1FVF0)
T1 construct: gene BSLS
Settings: 5 mM aminoacyl-SNAC, 10 min; 100 μM AdoMet, 1.5 μM enzyme, 50 mM Na2HPO4, pH 7.5, 25 °C

With `CC(=O)NCCSC(=O)[C@@H](N)Cc1ccccc1` [L-Phe-SNAC] the “radiometric methylation, ethyl acetate extraction, scintillation counting” value was “aMTBSLS construct displayed little preference for L-Phe-SNAC”.
